Assay results reported in the supplement of paper PMC10126150.
Values marked as one replicate rest on one cluster of the flow cell; about a third of the high ones do not repeat.

tested on: ATP; assay: switch fluorescence ratio, 500 uM ATP over buffer (Cy3 cluster intensity, sum of 5 cycles each) (fold (ratio)); higher = stronger signal-on switching upon ATP binding; sequences stand for … in TCGTCGGCAGCGTCAGATGTGTATAAGAGACAGTTTTTTTTTTTTTTTTTTTTTTTTT…TC; settings: aptamer strand: ATP DNA aptamer (quencher-CACCTGGGGGAGTATTGCGGAGGAAGG + anchor), 100 nM annealed; ATP concentration: 500 uM; one replicate
How it was run: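 The quencher-labelled ATP aptamer, at 100 nM, was annealed to Cy3-labelled switching-strand clusters on a modified Illumina MiSeq flow-cell. The clusters were imaged in selection buffer, then after 15 min with 500 uM ATP at 22 °C, and this buffer/ATP cycle ran five times with NaOH stripping and re-annealing between runs. Per-cluster fluorescence ratios, summed target-cycle over summed buffer-cycle Cy3 intensity, were averaged per switch-domain sequence. Clusters outside 100-1000 RFU were excluded.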
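Note: ATP exposure 15 min at 22 °C before imaging.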

Sequence	switch fluorescence ratio
TACATCAACA	1.14
TACATCCGGA	1.03
TACATGACGG	1.1
TACATGCCAG	1.02
TACATGCTGG	0.964
TACATGGCAC	1.14
TACATGGGA	1.01
TACATGGTAG	0.961
TACATTAGCG	1.03
TACATTATCC	1.08
TACATTCGCT	1.11
TACATTGTAG	1.01
TACCAGCCAG	1.04
TACCAGCGAG	1.04
TACCATAAGG	1.03
TACCATGGAA	1.01
TACCATGTTA	1.02
TACCCATTCG	1.01
TACCCGTCGC	1.1
TACCGCACGC	3.32
TACCGCGCTC	2.16
TACCGCGTTG	1.04
TACCGGTATT	1.06
TACCGTAAGC	1.56
TACCGTGTGC	0.995
TACCTACGTG	1.45

Sequence	switch fluorescence ratio
TACCTATGTA	0.975
TACCTTAACG	1.16
TACGAAATA	5.78
TACGACGCTC	1
TACGACTAGT	1.01
TACGAGGCAT	3.3
TACGATAGCC	1.17
TACGATGTGA	0.99
TACGATGTTG	0.996
TACGCGTTTA	1.03
TACGCTACCT	1.56
TACGGAAAAG	1.01
TACGGAAC	1.3
TACGGACGTA	1.01
TACGGAGTTG	1.01
TACGGATGCG	0.942
TACGGCAAT	2.15
TACGGCTTGA	1.01
TACGGGGCT	1.07
TACGGGGTGA	1.04
TACGGTAAGT	1.1
TACGTAATT	1.2
TACGTAGAG	1.08
TACGTCATG	1.09
TACGTGTTCG	1.02
TACGTTCGG	0.971

Sequence	switch fluorescence ratio
TACGTTCGTG	1
TACGTTGTC	1.18
TACTAGAACG	1.08
TACTAGCAGC	1.14
TACTATTGC	0.973
TACTATTTGA	0.989
TACTCCATTA	1.06
TACTCCCATG	1.59
TACTCGAGCG	1.02
TACTCGGCCT	1.11
TACTCTGTGC	1.2
TACTCTTACA	1.15
TACTGAAAA	1.04
TACTGCTATT	1.13
TACTGGTAGC	1.03
TACTGTACGA	1.43
TACTGTTT	0.984
TACTTAATGA	1.03
TACTTAGCGT	1.01
TACTTCTGGA	0.986
TACTTGACT	1.08
TACTTGCAT	1.11
TACTTGCTTA	1.01
TACTTTATTG	1.46
TACTTTGTGC	1.02
TACTTTTGGG	0.988

Sequence	switch fluorescence ratio
TAGAAAACA	1
TAGAAAACTT	1.02
TAGAAAAGAC	2.14
TAGAAATATT	1.03
TAGAAATGGC	1.07
TAGAAATTGC	0.994
TAGAAGAATG	0.992
TAGAATCCC	0.997
TAGAATTAAG	0.977
TAGACATTTT	1.01
TAGACCGCCT	0.978
TAGACGCTC	1.05
TAGACGTC	0.985
TAGACGTCGC	1.04
TAGAGGCTAC	1.02
TAGAGTCAAG	1.01
TAGAGTGTT	0.977
TAGAGTGTTT	1.01
TAGAGTTCAG	1
TAGATCCGGT	0.984
TAGATGATAT	1
TAGATGGACC	1.02
TAGATTCGG	0.949
TAGATTGCGG	1.04
TAGATTTGCC	1
TAGATTTTAC	1.02

Sequence	switch fluorescence ratio
TAGCAAAAGA	1.07
TAGCACACAC	1.47
TAGCAGCAGG	1.52
TAGCAGCTAT	0.999
TAGCAGGCGT	1.02
TAGCAGGGAA	1.01
TAGCCCATT	0.986
TAGCCCGGGT	1.07
TAGCCGTGAC	1
TAGCCTCTCC	1.73
TAGCGGGATG	1.41
TAGCGGTTA	0.989
TAGCGTGAGA	1.04
TAGCGTGCTG	0.992
TAGCGTTAAG	1.01
TAGCTACGCA	1.19
TAGCTATCGA	1.01
TAGCTATGGA	1.03
TAGCTCAAAC	0.993
TAGCTCCGGA	1.04
TAGCTGAGCA	0.994
TAGCTGGGGT	0.989
TAGGACTATA	1
TAGGACTTTA	1
TAGGAGGCTT	0.992
TAGGATGGGA	0.942

Sequence	switch fluorescence ratio
TAGGATTC	1.05
TAGGATTCTA	0.983
TAGGCAAAA	1.11
TAGGCACTTA	1.06
TAGGCATGTG	0.982
TAGGCCGATT	1.01
TAGGCCTGAA	1
TAGGCGGTAA	1.29
TAGGCTGTGT	0.971
TAGGCTGTT	1
TAGGCTTAAG	1.02
TAGGGAAAGG	0.965
TAGGGACTTG	1.04
TAGGGAGCCA	1.04
TAGGGAGCCC	0.989
TAGGGCAATG	1.05
TAGGGCAGGA	0.999
TAGGGCATGG	1.07
TAGGGCCACA	0.998
TAGGGCGAGT	1.03
TAGGGTCAAG	0.986
TAGGTCCTTA	1.01
TAGGTGCGAT	1.06
TAGGTGGAGG	0.977
TAGGTGTATT	1.05
TAGGTGTGGT	0.949

Sequence	switch fluorescence ratio
TAGGTTGAGC	0.96
TAGGTTGGG	0.95
TAGTAAAACG	1.04
TAGTAAATTG	0.976
TAGTAAGATA	0.989
TAGTAAGCCC	1.06
TAGTAAGGAT	1.02
TAGTAAGTTG	1.07
TAGTAATCCA	1.02
TAGTACCCTA	1.01
TAGTACCGTA	1.05
TAGTACGTGT	1.03
TAGTACTTAA	0.998
TAGTACTTGA	1.03
TAGTAGGGAG	0.988
TAGTAGGTCT	1.44
TAGTAGTCTT	1.01
TAGTATGATA	0.999
TAGTCAGTAG	1.04
TAGTCATAGG	0.968
TAGTCCCTTA	1.07
TAGTCCGTTA	1.05
TAGTCCTTGA	1.09
TAGTCTAGC	1.03
TAGTCTCGTA	0.974
TAGTCTGGAT	0.987

Sequence	switch fluorescence ratio
TAGTCTGTAC	1.14
TAGTCTTTCT	1.11
TAGTGATAAT	0.989
TAGTGCATA	0.999
TAGTGGACAT	0.998
TAGTGGGGAT	1.03
TAGTGTCCCC	1.07
TAGTGTGAAG	1.03
TAGTGTTACG	1.01
TAGTGTTAGA	1.02
TAGTTAATGG	0.989
TAGTTACGGA	1.07
TAGTTACTGC	1.09
TAGTTATTGT	1.03
TAGTTCAGCT	0.93
TAGTTCCCAG	1
TAGTTGATAC	1.18
TAGTTGCTAA	0.987
TAGTTGGCCT	0.996
